{"source": "patent CN108264558A", "about": "(SHANGHAI NOVOPROTEIN BIOTECHNOLOGY CO LTD, dated 2018)", "binders": {"B1": {"name": "人类4-1BB-hFc融合蛋白 (Fc fusion)", "chain": "not shown", "notes": "Bought from 吴江近岸蛋白质科技有限公司; also called 重组蛋白4-1BB-hFc; T细胞正共刺激分子4-1BB-hFc; not shown: human Fc (hFc)"}}, "key": {"CD19-CD3-4-1BBL TsM_M": {"molecular_target": "T1, CD19-CD3-4-1BBL TsM_M", "T1 construct": "monomer confirmed by SDS-PAGE and mass spectrometry; also called 单体形式的抗CD19/抗CD3/4-1BBL三特异性分子; 单体形式的TiTE三特异分子", "test": "ELISA, target coated at 1 μg/ml, TsM titrated from 10 μg/ml"}, "CD19-CD3-4-1BBL TsM_D": {"molecular_target": "T2, CD19-CD3-4-1BBL TsM_D", "T2 construct": "Two chains joined by disulfide bonds of the IgD hinge (dimer by non-reducing SDS-PAGE and mass spectrometry); also called 二聚体形式的抗CD19/抗CD3/4-1BBL三特异性分子; 二聚体形式的TiTE三特异分子", "test": "ELISA, target coated at 1 μg/ml, TsM titrated from 10 μg/ml"}}}
{"binder": "B1", "values": [{"measurement": "binding result", "setting": "CD19-CD3-4-1BBL TsM_M", "result": "binds"}, {"measurement": "binding result", "setting": "CD19-CD3-4-1BBL TsM_D", "result": "binds"}]}
